Experimental data taken from paper PMC4336329 (PLoS ONE, 2015).
Out of some 310,000 compounds screened, about 2,200 (0.71%) showed an effect of 50% or more. Effects have a minus sign here. Some of the results follow.

target: human ether-à-go-go-related gene (hERG) potassium channel (human, UniProt Q12809); assay: primary screen, population patch clamp on CHO cells stably expressing hERG
Sequence (Q12809 whole entry, looked up): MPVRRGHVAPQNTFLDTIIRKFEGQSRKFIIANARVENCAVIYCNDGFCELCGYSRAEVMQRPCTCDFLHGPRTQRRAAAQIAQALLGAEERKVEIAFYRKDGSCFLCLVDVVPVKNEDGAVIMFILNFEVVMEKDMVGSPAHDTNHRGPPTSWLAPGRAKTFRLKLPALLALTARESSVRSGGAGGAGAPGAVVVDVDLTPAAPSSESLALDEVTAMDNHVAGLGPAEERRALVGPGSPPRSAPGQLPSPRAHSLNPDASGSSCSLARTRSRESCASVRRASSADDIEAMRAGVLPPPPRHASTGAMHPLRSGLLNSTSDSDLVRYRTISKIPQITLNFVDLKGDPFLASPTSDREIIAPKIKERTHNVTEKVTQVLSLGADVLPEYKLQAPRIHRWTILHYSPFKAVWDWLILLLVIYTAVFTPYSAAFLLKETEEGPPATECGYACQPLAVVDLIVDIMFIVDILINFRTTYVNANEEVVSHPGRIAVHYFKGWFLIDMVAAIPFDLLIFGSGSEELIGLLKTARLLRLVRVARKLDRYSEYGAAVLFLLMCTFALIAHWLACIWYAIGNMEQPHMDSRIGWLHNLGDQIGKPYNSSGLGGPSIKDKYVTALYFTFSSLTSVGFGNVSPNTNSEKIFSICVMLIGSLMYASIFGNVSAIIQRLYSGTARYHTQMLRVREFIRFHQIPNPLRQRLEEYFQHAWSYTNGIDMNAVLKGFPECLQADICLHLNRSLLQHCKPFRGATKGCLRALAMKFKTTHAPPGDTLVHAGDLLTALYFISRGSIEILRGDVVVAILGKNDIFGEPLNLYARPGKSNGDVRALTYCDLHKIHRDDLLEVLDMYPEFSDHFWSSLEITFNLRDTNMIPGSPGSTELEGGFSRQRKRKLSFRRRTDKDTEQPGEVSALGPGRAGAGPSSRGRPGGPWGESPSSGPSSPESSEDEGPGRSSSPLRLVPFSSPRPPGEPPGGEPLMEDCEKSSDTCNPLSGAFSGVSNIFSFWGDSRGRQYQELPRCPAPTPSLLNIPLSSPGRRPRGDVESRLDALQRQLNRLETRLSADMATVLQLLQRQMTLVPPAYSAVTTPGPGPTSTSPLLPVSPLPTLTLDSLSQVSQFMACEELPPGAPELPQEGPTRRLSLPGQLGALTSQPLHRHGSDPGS

| Compound | hERG current change (%, negative = inhibition) at 1uM |
| --- | --- |
| CC(C)C(=O)Nc1ccc(C(=O)NN2C(=O)c3ccccc3C2=O)cc1 | 11% |
| COc1cccc2cc(C(=O)N(C)C3CCN(C)CC3)c(=O)oc12.Cl | 5.55% |
| COC(=O)CCCC1=CC2=CC(=O)C(C)(OC(=O)c3cccs3)C(=O)C2=CN1Cc1ccco1 (centres unmarked) | -1.36% |
| O=C(NNC1=C(C(=O)C(F)(F)F)CCC1)c1ccccc1Cl | 10.6% |
| CCN(CC(=O)Nc1ccc(OC)cc1)C(=O)c1ccc(N2C(=O)CCC2=O)cc1 | 10.2% |
| O=C(c1cc(Br)ccc1Cl)N1CCN(c2ncccn2)CC1 | 13% |
| COc1ccc(CCNC(=O)c2ccc(Cl)cc2Cl)cc1 | 11.4% |
| Cc1cccc(NC(=O)CSc2nnc(-c3ccco3)o2)c1C | 2.07% |
| CCOc1ccc(C(=O)Nc2ccc(NC(=O)c3ccccc3)cc2)cc1Br | 9.45% |
| OC1CCCN(C(=S)Nc2ccc(SC(F)F)cc2)C1 (centres unmarked) | 4.95% |
| CN1CCC(N(C)CC(=O)Nc2ccccc2N2CCOCC2)CC1.O=C(O)C(=O)O | 1.71% |
| CCn1cc(C(=O)NCCC(C)C)c(=O)c2cc(F)c(N3CCN(C(=O)c4ccco4)CC3)cc21 | 9.17% |
| O=C1CCCc2c1[nH]c1ccc(Cl)cc21 | 13.8% |
| O=C(CCNS(=O)(=O)c1cccs1)NCc1ccccc1 | 39.7% |
| O=C(CSc1nc2c(cnn2-c2cccc(Cl)c2)c(=O)[nH]1)NCC1CCCO1 (centres unmarked) | 7.6% |
| CC(C)c1ccc(NC(=O)NCc2ccc(F)cc2)cc1 | 12.9% |
| Cc1ccc(NC(=O)CCCc2nc3ccccc3s2)c(O)c1 | 3.79% |
| CCn1nc(C)c(CN2CCC(n3nccc3NC(=O)c3ccc4c(c3)OCO4)CC2)c1C | 0.427% |
| COc1cc(C2OC(=O)c3ccccc3S2)cc(OC)c1OC (centres unmarked) | 11.9% |
| Cc1cccnc1NC(=O)CNC(=O)C12CC3CC(CC(C3)C1)C2 | 3.55% |
| COc1ccc(N2CCN(c3ccc([N+](=O)[O-])nc3)CC2)cc1 | -4.82% |
| Cc1cc(Oc2nc3c(C)cccn3c(=O)c2/C=C(\C#N)S(=O)(=O)c2ccc(Cl)cc2)ccc1Cl | 4.5% |

| Compound | hERG current change (%, negative = inhibition) at 1uM |
| --- | --- |
| COC(=O)CC1C(=O)NCCN1C(=O)CSc1nnnn1-c1ccc(OC)cc1 (centres unmarked) | 11% |
| CCCCN(CC)CCCNC(=S)Nc1ccc2nc(N3CCN(CC)CC3)cc(C)c2c1 | 5.31% |
| COc1ccc(-c2csc(CCn3nc(C)cc3C)n2)cc1OC | 10.4% |
| COc1cc(/C=C/C(=O)O)ccc1O | -2.14% |
| COc1ccccc1CNC(=O)C1CCCN(S(=O)(=O)c2cccs2)C1 (centres unmarked) | 5.07% |
| COC(=O)C1C(=O)/C(=C(/C)N2CCCC2)C(=O)CC1(C)C (centres unmarked) | 2.05% |
| COc1ccc(Cl)cc1NC(=O)CN(C)C(=O)c1sccc1-c1ccccc1 | 12.8% |
| COc1ccc(OC)c2[nH]c(=O)c(CCNS(=O)(=O)c3ccccc3)cc12 | 13% |
| C(=N\n1cnnc1)/c1ccc2ncccc2c1 | -6.72% |
| CCOc1ccc(C(=O)CCC(=O)NNC(=O)c2ccccc2O)cc1 | 11.6% |
| CN(C)S(=O)(=O)N1CCc2ccccc2C1 | 7.54% |
| COc1ccc(NS(=O)(=O)c2ccc(-c3coc(C)n3)cc2)c(OC)c1 | 18% |
| CCOC(=O)C1=C(C)N(CCCCCC(=O)O)C(=O)NC1c1ccccc1OC(=O)c1cccs1 (centres unmarked) | -43.3% |
| COc1ccc2ccccc2c1/C=N/NC(=O)c1nnn(-c2nonc2N)c1C(C)C | 9.08% |
| O=C1CCCC/C1=N\Nc1ccc(OCc2ccccc2)cc1 | 7.2% |
| C=C1C(=O)O[C@H]2C1CC[C@@](C)(O)C13C=CC(C)(C21)C1(C3)C(=O)O[C@@H]2C3C(C)=CCC3[C@](C)(O)C[C@H](OC(C)=O)C21 (some centres unmarked) | 2.12% |
| NC(=O)c1ccsc1NC(=O)C1CCN(S(=O)(=O)c2cccs2)CC1 | 4.15% |
| C=CCN=Cc1c(C)[nH]n(-c2ccccc2)c1=O | 11.2% |
| CCOC(=O)c1ncn2c1C(=O)OC2(C)C | 8.12% |
| COc1cccc(OC)c1C(=O)OCC(=O)NCC(C)C | 10.6% |
| Cc1ccc(SCC(=O)NCC(C)C)cc1 | 2.32% |
| O=C(/C=C/c1ccc([N+](=O)[O-])cc1)N1CCN(Cc2ccccc2)CC1 | -63.8% |
